Experimental data reported in the supplement of paper PMC11417369.
The list shows a part of the results.

test system: PF3D7_0420300 AP2 domain 1 (GST-tagged); assay: gcPBM binding intensity (ln(normalized median fluorescence intensity)); higher = stronger DNA binding
Procedure, shortened: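 GST-tagged P. falciparum DNA-binding domains, expressed in E. coli (about 25 μg on average), were applied for 1 h to an Agilent 4 × 180k array of primer-extended double-stranded 36-bp intergenic genomic probes plus negative controls. The binding buffer was 1× PBS with 1% milk, 0.2 mg/ml BSA, 0.5% salmon testes DNA and 0.03% Triton X-100. Bound protein was detected with Alexa488 anti-GST antibody and scanned at 488 nm. Binding intensity is the highest Masliner-normalised natural-log median intensity across replicate spots of either probe orientation.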

Sequence	gcPBM binding intensity (ln)
AAAAAAAAAAAAAATAAATAAATAAATAAATATATA [GTGCAC_negctrl_site382]	9.04
CCTTTTTATTTTTGTAGTACTACATATACATATCTG [XGTACX_site7791]	9.43
ATATTAAAAAAATATAAACACACAAAAAAAAAATAT [CACACA_site8283]	9.94
TATTCAAAGAAAAACTGTACGTGTAGCAAACGTCAT [XGTACX_site7713]	9.22
TTTTTATAACAGCTTAGTACATATAAGAATTCTTGC [XGTACX_site5890]	8.9
GACCCCATATACATATGTACATACATAATATATATA [XGTACX_site1817]	9.57
TTTGTTGGTATGGTTACACACATTTAGGAAATAAAA [CACACA_site1411]	9.32
TCTTATAAATTAAATATAAAAAAAAAAAAAAAAAAA [XGTACX_negctrl_site77]	8.41
AGTATTTTGTTTATCACACATATTGGAATTTTCAAT [CACACA_site4686]	9.35
AAAATAATTCAATGTAGTACAATACAAATTGAGAGA [XGTACX_site5991]	9.34
AAAATTATACACACACGTACATATAAATAGAAATAT [XGTACX_site1753]	9.96
TTCAAAAAATATATCTGTACAAATTATGTAGATGAA [XGTACX_site5522]	9.04
TTTTTTTTTTTTTTTTTTTTACGATATATTTTAAAA [XGTACX_negctrl_site401]	8.37
TAGATCATAACAATTGCACACATTTGCATTTATATT [CACACA_site1562]	9.45
TTTTTACTTATTTATTATGTACAATTTCTTCTTTCT [CACACA_negctrl_site264]	9.33
AATGTACGCATATACACACACATAAATAGATACGTA [CACACA_site3406]	9.7
AACGAAAACACTACGTGTACCAAACGTCCTACCAAC [XGTACX_site257]	9.54
AATAGTTAAATACATACATGCATTCATATAATATAT [TGCATGCA_site433]	9.27
AAGATAAAAATATGCACACATATATATATATATATA [CACACA_site404]	9.22
TAATTAAGAATATATAGTACATAGTTGAAAAACTTT [XGTACX_site6359]	9.1
ATATTCTCTTAAATATGTACGTATGTATATATATAT [XGTACX_site5885]	9.16
CGCAAAACAATGATACGTACATATATATATATATAT [XGTACX_site5883]	9.21
ATTCTTAAATGTGGTTGTACATATTATCACCTTTAA [XGTACX_site8188]	9.13

Sequence	gcPBM binding intensity (ln)
TTTTTAATTTTATATACACACATAAAAGATATGAAG [CACACA_site7470]	9.13
AGTAGATTTTTATTAGTGCATTTTATACTACAAAAA	9.08
TATATGTTTAATTTCACACACAAATATACATTTTAA [CACACA_site4171]	9.51
AAGAAAATGTAGAATTAGAAATAAATGAAGAAATGA [TGCATGCA_negctrl_site548]	9.31
CATTAGCATTTTATTACACACAATAAATTAGAAGTA [CACACA_site7837]	9.4
ATATTTATTTATATCATACACACTAATATGTATATT [CACACA_site7576]	9.54
TATCCCTTAGAATACACACCCATATGAGGGTGAACT [CACACA_site5610]	9.15
CTTAATGATAAATACATACACACAAAAAATAATATA [CACACA_site2577]	9.78
TTAATTTCGAATTATTGTACATTAATATATCTACAG [XGTACX_site3314]	9.11
AAAACAAATAGACACGCACACAAAAAAAAAAAAAAA [CACACA_site801]	9.33
GAATAAAAAAAAAAAAAAATTTATTTTATAATAAAA [CACACA_negctrl_site1514]	8.72
ATATATATATATATATGTACATAAATATAAATTTAA [XGTACX_site8715]	9.1
ATGCAATAATAATGGAGTACATATTAATATTGATCA [XGTACX_site2312]	9.28
CCTTTTGGATGAAAGTGTACAGGTGAGAAAAATTCC [XGTACX_site3358]	9.03
AAAAAATATATTAAGGCACACACATACATATATATA [CACACA_site9239]	9.88
TAATTCTTTATTTTTCGTACGTAAAACAAAAAATAT [XGTACX_site862]	8.97
AATGTAAAGAACAAAACATGCAACTAGTTTACTTTT [TGCATGCA_site841]	9.39
TAAGTATATAAAATTACACACTATTTTTTTTCAAGT [CACACA_site1792]	9.1
TAGAAAAAAGATAGCACACACGGCCCAATATATATA [CACACA_site5354]	9.82
TCGAATATCTTATAGGTGCATCATAAATACATATGT	9.25
TACATTTATAATAATACACACATAAATTTACATTTT [CACACA_site3463]	9.44
TATGAAAATTAAGTTTGTACACAAGTGGAAAAAAAA [XGTACX_site6129]	9.28
AAATTAAATAAATTTACACACTAAAAGTTACCTATA [CACACA_site6623]	9.24

Sequence	gcPBM binding intensity (ln)
TTTGTTATTTATTAGTGTACAAAAAAGCATTTCAAA [XGTACX_site8729]	8.88
AAAAAAAAAAAAAAAAAAAAAAAAAAAAAAAAAAAT [CACACA_negctrl_site882]	9.63
ATATAAAGAAATTAATTTTTCAACAATAAAAATATA [CACACA_negctrl_site1262]	9.01
ATATTTTGTAATATTTGTACATATATTATACATATA [XGTACX_site963]	9.33
AATAATGTATAATGATGTACAAAAAAGGAAGACATA [XGTACX_site2474]	9.72
TTTTTTTTGCGTACAGTGCAAATTTATTTACTATTC	9.21
TACATCGGTATATAAACACACAACAAAAATGCTTAC [CACACA_site5983]	9.56
AAAATAATTAAAAAAAGTACTCGTAATATAAATATA [XGTACX_site4967]	9.38
TTAAAAGATATTACATGTACATATTCAATATATGTA [XGTACX_site5895]	9.11
ACAAATAAATAAAAATGTACAAATGAATACATCTTA [XGTACX_site3780]	9.24
TTTTTTTAAAAAAACAAAAAAAAAAAAAATATAAAA [TGCATGCA_negctrl_site511]	8.89
CGTGGGAGCGGACACACACACACACCCATATATATA [CACACA_site4340]	10.1
TATACATATTATATATGTACACATATTATATGTATA [XGTACX_site5851]	9.17
TCAACAAATAAACTTTGTACATATATACAAAATATA [XGTACX_site4447]	8.97
AATTTAAAAGCTTGTGGTACTTTTGCTCTTCCTTTG [XGTACX_site3148]	9.31
ATACAAAAAAGAAGGACACACAGAAGTAACATGTTA [CACACA_site3074]	9.91
TAACATGATATATAATGTACATATAAGATATTTATA [XGTACX_site4383]	9.09
ATGAATTATATATTATGTACATATAATTAAAATATA [XGTACX_site7140]	9.12
TTTAAAAAAAAAAAAAAAAATTAAATGAATTATTAA [CACACA_negctrl_site1121]	8.55
AAATATAATAATATATGTACATATATATATATATAT [XGTACX_site6980]	9.06
AAAAAAATATATATATATATATATATATATATATAT [TGCATGCA_negctrl_site7]	8.75
AAAAAAAAAAAAAAAGGTACAGTAAAAAATTCCTCT [XGTACX_site5947]	8.98
AAATTTAATTTTATATCACACATTAAATTTTAATGG [CACACA_site4251]	9.04

Sequence	gcPBM binding intensity (ln)
ATAACATAACATAATACACACATATAAAAAAGAAAT [CACACA_site3028]	10.1
ATATAATATATTTTCACACATATTTTATGATGATAA [CACACA_site5614]	9.1
TATGTAAAAAGAGAAAAAAAAAAGAACGATAATTTC [CACACA_negctrl_site946]	9.44
ATATAAGAATTTAAGAGTACATTCACTTCAAATTTA [XGTACX_site2115]	9.02
AGGTGTATCATAAAATGTACATACATACATACATAA [XGTACX_site4479]	9.33
TTGTAATTCATTCAAATATAAAATAAATAAATATGA [CACACA_negctrl_site349]	8.98
AAAATGTGCTTTTCAGTGCAATTTTTTTTGTAATAA [GTGCAC_site9566]	8.82
TATTATTATTTTTTATGTACTAACGACAAAAATATT [XGTACX_site252]	9.05
AGCAACCCCCTAGCTACACACATATAGATATATATA [CACACA_site951]	9.86
TATATATTATACACGTGTACACATTATAACAATATA [XGTACX_site7799]	9.27
TTTCCCTTAAATTAATGTACATAAATTGAAAATACC [XGTACX_site1602]	9.08
TAAAATTTTTTTGTTTGTACATATATATATATAATA [XGTACX_site5609]	9.11
AAAAAAATAAATAAATACATACATATATATATGTAT [GTGCAC_negctrl_site510]	9.24
AAAAAAAAAAAACACACACACAAAAAAAAATATATA [CACACA_site1105]	10.1
TTGCCCCAGGAGTTCACACACATAATAGATTGTCAC [CACACA_site726]	9.68
TACGTGAAATTATATACACACATAAATATGTCTGTA [CACACA_site3122]	9.39
AAGCTACACATAGATTATTATTAATTTAATGTATAT [CACACA_negctrl_site548]	9.1
ACAAGCTTTCATAAGGTGCAATGATTTAACAAAAAA [GTGCAC_site9726]	8.87
AATTATTAGCGTGGTGTGCACAAAATTATGGACACA	9.58
TATAAAAATAATATTACACACATGTAAAATGTCGGT [CACACA_site3264]	9.54
